Our source for the viability, T/C values is PubChem BioAssay AID1845194 (Molecular Pharmacology Branch, DTP, NCI, 2023).

SMILES strings stand for the structures. The source holds more than one record for some entries. The other results are left out here. The source may hold further records. Values that stand side by side repeat one measurement (runs, samples, wells, individuals or studies).

This assay deals with 287954-098-R-J1 tumor spheroid viability. Briefly: Anticancer human tumor 287954-098-R-J1 patient-derived Ewing sarcoma cell line growth inhibition. The following applies: compound alone 30 µM; stronger effect = lower value; spheroids with HUVEC and MSC. The text has this: Multicellular complex tumor spheroid response to DNA repair inhibitors in combination with DNA-damaging drugs
This study explores the anticancer activities of DNA-damaging drugs and inhibitors of DNA damage repair, both as single agents and in combinations. Complex tumor spheroids comprised of malignant cells, endothelial cells and mesenchymal stem cells served as an in vitro model for human solid tumors. This model system incorporates physiologically relevant features and patient-derived or established malignant cell lines with clinically relevant genetic alterations from many tumor types. Twenty-six patient-derived or established malignant cell lines were evaluated representing sarcoma, melanoma, small cell lung cancer (SCLC), non-small cell lung cancer (NSCLC), as well as bladder, ovarian and pancreatic cancers. The concentration ranges selected for each drug and investigational agent were based upon clinically achievable concentrations if the clinical Cmax of the agent was known.
Compounds. […] If the clinical Cmax for an agent had not been determined, the highest concentration tested was 10 microM. […]
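Also: luminescent signal taken as surrogate of viable cell content; spheroids exposed to compound for 7 days before viability readout; 100% = DMSO vehicle control viability and lower means growth inhibition.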

By viability, T/C is commonly meant the result in the treated group divided by that in the control group, in per cent. With `O=C(c1cc(Cc2n[nH]c(=O)c3ccccc23)ccc1F)N1CCN(C(=O)C2CC2)CC1`, the viability, T/C is listed as 34.4%, 8.98%, 25.7%.
